Experimental data: the supplement of paper PMC4967469
A lower IC50 marks a more sensitive line; fits outside the tested doses are given as limits. AUC, from the same fit, is the share of area under the viability curve across the 256-fold dose range: 1 means no effect, lower means more sensitive. For part of these data: Any top dose called inferred is not printed in the source and was worked back from the curve model.

Columns and labels:
Experiment in all cases: Viability of human cancer cell lines after 72 h of drug (GDSC screen)
Trametinib = compound: CC(=O)Nc1cccc(-n2c(=O)n(C3CC3)c(=O)c3c(Nc4ccc(I)cc4F)n(C)c(=O)c(C)c32)c1 [Trametinib]; conditions: top dose 1 µM
Protocol: (§1)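 Human cancer cell lines in 384-well plates, medium with 10% serum, drug for 72 h over a 256-fold dose range (nine 2-fold or five 4-fold steps up to the top dose). Adherent lines were fixed and stained with the nucleic acid dye Syto60, suspension lines read with resazurin; signal relative to control wells, capped at 0 and 100%. One two-parameter sigmoid per drug and line, fitted in a mixed model over all curves with the slope shared within a line.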

I-BET-762 = compound: CCNC(=O)C[C@@H]1N=C(c2ccc(Cl)cc2)c2cc(OC)ccc2-n2c(C)nnc21 [I-BET-762]; conditions: top dose 20 µM; top dose inferred
Protocol: as §1

AV-951 = compound: COc1cc2nccc(Oc3ccc(NC(=O)Nc4cc(C)on4)c(Cl)c3)c2cc1OC [AV-951]; conditions: top dose 0.128 µM; top dose inferred
Protocol: as §1

HG-6-64-1 = compound: CCN1CCN(Cc2ccc(NC(=O)c3ccc(C)c(/C=C/c4cnc5[nH]ccc5c4OC)c3)cc2C(F)(F)F)CC1 [HG-6-64-1]; conditions: top dose 5.12 µM; top dose inferred
Protocol: as §1

KIN001-244 = compound: O=C(NC(COc1ccc2[nH]c(=O)[nH]c2c1)c1ccccc1)c1cccn(Cc2ccc(F)c(F)c2)c1=O [KIN001-244]; conditions: top dose 20 µM; top dose inferred
Protocol: as §1

PF-4708671 = compound: CCc1cncnc1N1CCN(Cc2nc3ccc(C(F)(F)F)cc3[nH]2)CC1 [PF-4708671]; conditions: top dose 10 µM; top dose inferred
Protocol: as §1

| Cell Line | AUC (Trametinib) | IC50 (Trametinib) | AUC (I-BET-762) | IC50 (I-BET-762) | AUC (AV-951) | IC50 (AV-951) | AUC (HG-6-64-1) | IC50 (HG-6-64-1) | AUC (KIN001-244) | IC50 (KIN001-244) | AUC (PF-4708671) | IC50 (PF-4708671) |
| --- | --- | --- | --- | --- | --- | --- | --- | --- | --- | --- | --- | --- |
| NCI-H2291 (lung adenocarcinoma, adherent) | 0.126 | < 0.00391 µM | 0.982 | > 20 µM | 0.984 | > 0.128 µM | 0.983 | > 5.12 µM | 0.978 | > 20 µM | 0.918 | > 10 µM |
| NCI-H2342 (lung adenocarcinoma, adherent) | 0.954 | > 1 µM | 0.986 | > 20 µM | 0.986 | > 0.128 µM | 0.572 | 0.515 µM | 0.882 | > 20 µM | 0.88 | > 10 µM |
| NCI-H2347 (lung adenocarcinoma, adherent) | 0.33 | 0.0189 µM | 0.966 | > 20 µM | 0.982 | > 0.128 µM | 0.889 | > 5.12 µM | 0.922 | > 20 µM | 0.944 | > 10 µM |
| NCI-H2405 (lung adenocarcinoma, adherent) | 0.647 | 0.168 µM | 0.98 | > 20 µM | 0.979 | > 0.128 µM | 0.539 | 0.413 µM | 0.941 | > 20 µM | 0.943 | > 10 µM |
| NCI-H2444 (non-small cell lung carcinoma, adherent) | 0.9 | > 1 µM | 0.935 | > 20 µM | 0.988 | > 0.128 µM | 0.969 | > 5.12 µM | 0.985 | > 20 µM | 0.979 | > 10 µM |
| NCI-H2452 (mesothelioma, adherent) | 0.687 | 0.234 µM | 0.98 | > 20 µM | 0.982 | > 0.128 µM | 0.733 | 1.7 µM | 0.981 | > 20 µM | 0.975 | > 10 µM |
| NCI-H3122 (lung adenocarcinoma, adherent) | 0.388 | 0.0304 µM | 0.902 | > 20 µM | 0.984 | > 0.128 µM | 0.827 | 3.26 µM | 0.875 | > 20 µM | 0.969 | > 10 µM |
| NUGC-3 (stomach, adherent) | 0.52 | 0.0715 µM | 0.979 | > 20 µM | 0.983 | > 0.128 µM | 0.772 | 2.23 µM | 0.915 | > 20 µM | 0.935 | > 10 µM |
| NUGC-4 (stomach, adherent) | 0.138 | 0.00456 µM | 0.984 | > 20 µM | 0.987 | > 0.128 µM | 0.731 | 1.46 µM | 0.832 | 12.8 µM | 0.978 | > 10 µM |
| NY (osteosarcoma, adherent) | 0.931 | > 1 µM | 0.989 | > 20 µM | 0.989 | > 0.128 µM | 0.568 | 0.488 µM | 0.989 | > 20 µM | 0.956 | > 10 µM |
| OAW-28 (ovary, adherent) | 0.915 | > 1 µM | 0.934 | > 20 µM | 0.977 | > 0.128 µM | 0.853 | > 5.12 µM | 0.934 | > 20 µM | 0.934 | > 10 µM |
| OAW-42 (ovary, adherent) | 0.665 | 0.188 µM | 0.966 | > 20 µM | 0.984 | > 0.128 µM | 0.796 | 2.63 µM | 0.938 | > 20 µM | 0.969 | > 10 µM |
| OCI-AML3 (acute myeloid leukaemia, suspension) | 0.067 | < 0.00391 µM | 0.373 | 0.589 µM | 0.991 | > 0.128 µM | 0.911 | > 5.12 µM | 0.489 | 1.18 µM | 0.98 | > 10 µM |
| OCUM-1 (stomach, adherent) | 0.05 | < 0.00391 µM | 0.985 | > 20 µM | 0.987 | > 0.128 µM | 0.947 | > 5.12 µM | 0.873 | > 20 µM | 0.966 | > 10 µM |
| OE19 (oesophagus, adherent) | 0.787 | 0.5 µM | 0.973 | > 20 µM | 0.986 | > 0.128 µM | 0.918 | > 5.12 µM | 0.957 | > 20 µM | 0.682 | 2.17 µM |
| OE21 (oesophagus, adherent) | 0.429 | 0.0371 µM | 0.937 | > 20 µM | 0.977 | > 0.128 µM | 0.735 | 1.97 µM | 0.895 | > 20 µM | 0.966 | > 10 µM |
| OE33 (oesophagus, adherent) | 0.75 | 0.381 µM | 0.96 | > 20 µM | 0.975 | > 0.128 µM | 0.878 | > 5.12 µM | 0.933 | > 20 µM | 0.977 | > 10 µM |
| OSC-19 (head and neck, adherent) | 0.476 | 0.0535 µM | 0.947 | > 20 µM | 0.987 | > 0.128 µM | 0.568 | 0.496 µM | 0.919 | > 20 µM | 0.97 | > 10 µM |

| Cell Line | AUC (Trametinib) | IC50 (Trametinib) | AUC (I-BET-762) | IC50 (I-BET-762) | AUC (AV-951) | IC50 (AV-951) | AUC (HG-6-64-1) | IC50 (HG-6-64-1) | AUC (KIN001-244) | IC50 (KIN001-244) | AUC (PF-4708671) | IC50 (PF-4708671) |
| --- | --- | --- | --- | --- | --- | --- | --- | --- | --- | --- | --- | --- |
| OSC-20 (head and neck, adherent) | 0.843 | 0.919 µM | 0.969 | > 20 µM | 0.98 | > 0.128 µM | 0.698 | 1.3 µM | 0.868 | > 20 µM | 0.924 | > 10 µM |
| OV-90 (ovary, adherent) | 0.098 | < 0.00391 µM | 0.936 | > 20 µM | 0.974 | > 0.128 µM | 0.865 | > 5.12 µM | 0.951 | > 20 µM | 0.968 | > 10 µM |
| OVCAR-3 (ovary, adherent) | 0.978 | > 1 µM | 0.987 | > 20 µM | 0.987 | > 0.128 µM | 0.83 | 3.69 µM | 0.986 | > 20 µM | 0.956 | > 10 µM |
| OVCAR-5 (ovary, adherent) | 0.17 | 0.00482 µM | 0.91 | > 20 µM | 0.968 | > 0.128 µM | 0.792 | 2.87 µM | 0.932 | > 20 µM | 0.958 | > 10 µM |
| OVCAR-8 (ovary, adherent) | 0.791 | 0.398 µM | 0.855 | 13.4 µM | 0.99 | > 0.128 µM | 0.699 | 1.08 µM | 0.896 | > 20 µM | 0.952 | > 10 µM |
| OVISE (ovary, adherent) | 0.723 | 0.337 µM | 0.917 | > 20 µM | 0.964 | > 0.128 µM | 0.847 | > 5.12 µM | 0.858 | > 20 µM | 0.962 | > 10 µM |
| OVKATE (ovary, adherent) | 0.865 | > 1 µM | 0.843 | > 20 µM | 0.979 | > 0.128 µM | 0.965 | > 5.12 µM | 0.844 | > 20 µM | 0.979 | > 10 µM |
| OVMIU (ovary, adherent) | 0.346 | 0.0209 µM | 0.775 | 9.95 µM | 0.971 | > 0.128 µM | 0.816 | 3.75 µM | 0.813 | 14.2 µM | 0.911 | > 10 µM |
| OVTOKO (ovary, adherent) | 0.664 | 0.203 µM | 0.912 | > 20 µM | 0.977 | > 0.128 µM | 0.615 | 0.727 µM | 0.907 | > 20 µM | 0.923 | > 10 µM |
| PA-TU-8902 (pancreas, adherent) | 0.245 | 0.00994 µM | 0.982 | > 20 µM | 0.982 | > 0.128 µM | 0.8 | 2.97 µM | 0.846 | 18.5 µM | 0.919 | > 10 µM |
| PA-TU-8988T (pancreas, adherent) | 0.281 | 0.0149 µM | 0.976 | > 20 µM | 0.987 | > 0.128 µM | 0.66 | 0.891 µM | 0.908 | > 20 µM | 0.922 | > 10 µM |
| PANC-02-03 (pancreas, adherent) | 0.314 | 0.0168 µM | 0.748 | 7.59 µM | 0.969 | > 0.128 µM | 0.843 | 4.73 µM | 0.808 | 12.9 µM | 0.932 | > 10 µM |
| PANC-03-27 (pancreas, adherent) | 0.506 | 0.0647 µM | 0.989 | > 20 µM | 0.982 | > 0.128 µM | 0.72 | 1.28 µM | 0.906 | > 20 µM | 0.989 | > 10 µM |
| PANC-08-13 (pancreas, adherent) | 0.964 | > 1 µM | 0.887 | > 20 µM | 0.97 | > 0.128 µM | 0.703 | 1.42 µM | 0.951 | > 20 µM | 0.943 | > 10 µM |
| PANC-10-05 (pancreas, adherent) | 0.55 | 0.0892 µM | 0.931 | > 20 µM | 0.977 | > 0.128 µM | 0.814 | 3.82 µM | 0.912 | > 20 µM | 0.958 | > 10 µM |
| PC-3 [JPC-3] (lung adenocarcinoma, adherent) | 0.91 | > 1 µM | 0.932 | > 20 µM | 0.977 | > 0.128 µM | 0.672 | 1.14 µM | 0.859 | > 20 µM | 0.914 | > 10 µM |
| PC-14 (lung adenocarcinoma, adherent) | 0.63 | 0.136 µM | 0.982 | > 20 µM | 0.989 | > 0.128 µM | 0.616 | 0.641 µM | 0.879 | 16.7 µM | 0.963 | > 10 µM |
| PCI-4B (head and neck, adherent) | 0.3 | 0.0178 µM | 0.846 | 13.5 µM | 0.981 | > 0.128 µM | 0.672 | 0.937 µM | 0.882 | 19.2 µM | 0.95 | > 10 µM |
